Paper PMC4242493
The other results are listed elsewhere or left out. The list includes weakly bound sequences.

Target: MaxL homodimer (UniProt P61244)
Assay: universal protein-binding microarray (PBM)
Details: PBS-based mixture, 10 nM His-tagged protein dimer, 2% milk, 200 ng/uL BSA, 50 ng/uL salmon testes DNA, 0.02% TX-100; detection with Alexa 488 anti-His …; high values mean tight binding; most listed sequences are background and not binding sites; double strand, one strand shown

Chain of UniProt P61244 (P61244 whole entry): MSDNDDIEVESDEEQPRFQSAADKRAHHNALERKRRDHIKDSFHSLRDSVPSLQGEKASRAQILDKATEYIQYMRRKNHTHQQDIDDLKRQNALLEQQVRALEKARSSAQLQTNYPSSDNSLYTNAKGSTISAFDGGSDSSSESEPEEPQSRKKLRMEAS

Sequence | binding signal (normalized occupancy)
AGTGCCGG | 0.0762
ATTTATGC | 0.0838
CTAGCCTA | 0.0691
CTGCCGCA | 0.0734
GAGTCGGC | 0.0659
AGCGGACT | 0.0703
GTCTGGGA | 0.0714
CCTGCGTC | 0.0706
CTAGTGGA | 0.0754
CCAGAAAA | 0.0716
CGGGTCTA | 0.076
GCCGACGC | 0.0701
ACAGGTTA | 0.0784
ATCTTGCG | 0.0776
TGCCACCA | 0.0815
ATCGCCGC | 0.0728
TCAAGACA | 0.0708
CACGGGGG | 0.101
ACAAGTAA | 0.0794
GCGAACAC | 0.0778
ATATCAAG | 0.0794
AACATGTC | 0.087
ATTTTAAG | 0.0735
CTCCTAGC | 0.0746
CGATACAC | 0.0865

Sequence | binding signal (normalized occupancy)
ACATAGTC | 0.0786
TCATAGAA | 0.0768
TAGATGAA | 0.0818
CAGGCGAC | 0.0738
CACATGCG | 0.159
AATGCATA | 0.0839
AGGACTGC | 0.0704
ACTCATCC | 0.0806
AGCTTTCA | 0.0682
GGACGACA | 0.0737
CGGTACTA | 0.0725
CACTATGA | 0.0828
ACGAATGC | 0.0793
ATCACTTC | 0.0797
GAAATGCC | 0.077
GACCATAC | 0.0805
GCGCATGA | 0.0897
CAGCACTG | 0.0698
AAGCCTCC | 0.072
GTGAAGTA | 0.0777
AGGCAAAC | 0.0684
AGTTACGC | 0.0736
CAACAAAA | 0.0692
AAGAACGT | 0.0766
ACAACTGA | 0.0763

Sequence | binding signal (normalized occupancy)
TGCCGCAA | 0.0788
ACCGAAAC | 0.0726
CTCTCTTC | 0.0708
CTACACAA | 0.0806
ACCAGCCA | 0.0723
CATGATAG | 0.0847
TACTGCTA | 0.075
TCGCTACA | 0.0793
GAGCCCAC | 0.0761
AGCGCTGG | 0.0684
CCCCTTAG | 0.0716
ATGCAAAT | 0.0818
ATCGTACA | 0.0781
ACTAAACC | 0.0782
GGTCTATA | 0.085
GTGTACAA | 0.0803
GAGTATCC | 0.0728
AAGGGATC | 0.0712
AAGCGGGT | 0.0679
AAGAGCGC | 0.0706
GACCAACC | 0.0713
CGCTTCAA | 0.0675
GGTGCCTA | 0.0773
ATCTGATC | 0.0784
AGTCCAAG | 0.0718

Sequence | binding signal (normalized occupancy)
CTACAACA | 0.0787
GAGCGGGC | 0.0706
AAGGCCGG | 0.0664
ATAATGTG | 0.095
GCCCGCGA | 0.0664
AGGAAAAC | 0.075
CTTTCGTA | 0.0752
TGAGGGAA | 0.0785
ACTGGCAA | 0.0759
GGCTACAA | 0.0713
AGCCTAGA | 0.0731
ACCTCAAG | 0.0765
CGTATGTC | 0.0795
CCTTGTAG | 0.0734
CAGCAGAG | 0.0727
GCGGCCAC | 0.072
CACACGGG | 0.0889
GTCATCAA | 0.0782
AGAACGCT | 0.0696
CCCACGAG | 0.0996
CGTTAAAC | 0.0747
ATTCCGCC | 0.0717
CAGTTAAC | 0.0727
TAACTGTA | 0.0739
TATACCCA | 0.0824

Sequence | binding signal (normalized occupancy)
AATCGTGA | 0.0761
GCATACAC | 0.0833
ACAGTGCT | 0.0742
GTCAATGA | 0.0811
ACCTAGGA | 0.0732
GCCTCCGA | 0.0697
CTGCGGGC | 0.0698
GTAGGAGA | 0.0744
AGACCGTG | 0.0745
ATCACGCC | 0.0864
AAATGGCT | 0.0774
ACGAGTAG | 0.075
CTGCCTCC | 0.0705
ACCAAAGG | 0.069
ATACATGA | 0.0834
CGTACTAG | 0.0712
ATCCTCGG | 0.0718
CGGACCAC | 0.0803
CTGGGTGA | 0.0665
AAAAGAAC | 0.0741
GCGTCCAA | 0.072
GAGGGATC | 0.0736
ACAGGTGA | 0.084
AAACCGCC | 0.0651
AGCATCTC | 0.0746

Sequence | binding signal (normalized occupancy)
ATAAGAGA | 0.0795
AGTTATAC | 0.0784
CTCTGAAG | 0.068
GTCGTGCA | 0.0855
CTGTCCCC | 0.0754
TGAATCCA | 0.0757
CTGTCGAC | 0.0741
AACGTGAC | 0.109
GGAGCTCA | 0.0759
AGAAAATA | 0.0744
AATACTCT | 0.0782
GTAATTTA | 0.0747
CCGGTAGC | 0.0732
CCTGTCTA | 0.0733
GATCCAGC | 0.0752
AATACCCC | 0.0855
CCCGGGCC | 0.0643
GGGCCAAC | 0.0715
CAGACCTG | 0.0707
AATCGGTA | 0.0782
GGAACCCA | 0.0717
AATCGACG | 0.0719
AATTTCTC | 0.0726
CCGGAATC | 0.0716
CTAAGTCC | 0.0701

Sequence | binding signal (normalized occupancy)
CACCTTTA | 0.0769
ACAGCACG | 0.0906
ACCCGCCC | 0.0826
GAGTGTAA | 0.0757
ACCTTCCA | 0.0801
CATCCGGA | 0.0723
TAAATCGA | 0.0763
CAATGGAA | 0.074
GCCTCTAC | 0.0788
CCTTGTGC | 0.0831
AAGAGGCC | 0.0686
ACAATGCA | 0.0822
GCAATAGA | 0.0806
AACTCCGA | 0.068
ACCGTCGA | 0.0706
TTCTCCAA | 0.0748
CCCCCCGC | 0.0765
CTTATACC | 0.0794
GGCAATAA | 0.0771
GTCCCCGA | 0.0696
CGACAAGA | 0.0683
AGTTTAGG | 0.0689
